Data reported in PubChem BioAssay AID686979 (National Center for Advancing Translational Sciences (NCATS), 2013).
The campaign covered roughly 420,000 compounds. About 50,000 (12%) were called active. The shares of active, inactive and inconclusive entries below differ from those in the screen. Calls come from the whole dose curve; as a rule, active = well fitted inhibition curve with a large enough effect; inconclusive = small, poorly fitted or top-dose-only effect; inactive = flat fitted curve, though single readings scatter. No potency is given beside an inconclusive call; the fits are too rough.

assay: qHTS for Inhibitors of human tyrosyl-DNA phosphodiesterase 1 (TDP1): qHTS in cells in presence of CPT; conditions: chicken DT40 Tdp1-/-;hTDP1 cells + 20 nM CPT, ATP luminescence, 48 h; activity change, negative = growth inhibition: at 46.2 µM (top of the series); note: nearly all actives have a fitted effect of over 55% in size
Outline: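 Cell growth measured by CellTiter-Glo luminescence after a minimum 48 h, 37 C compound exposure with 20 nM CPT in Tdp1-knockout DT40 cells stably expressing hTDP1, seeded 400/well; qHTS titration format.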
% is set by controls: 0 for no effect and ±100 for the full control effect; potency is the fitted concentration of half-maximal effect; tags give direction and shape of the fitted curve.

Question: With `COc1ccc(C2CC(c3ccc(C(F)(F)F)cc3)=NN2c2ccc(S(N)(=O)=O)cc2)cc1` (stereo not drawn) as the compound, how does the Potency read?
Answer: active: 18.4 µM

Question: For `Cn1nc2c(c1C(=O)N1CCCC(C(=O)c3cc(F)ccc3F)C1)CCCC2` (stereo not drawn), which Potency is on record?
Answer: active: 16.4 µM

Question: For `Cc1ccc(C)c(N2CCN(C(=O)c3cc(S(=O)(=O)N4CCC(C)CC4)cn3C)CC2)c1`, which Potency is on record?
Answer: active: 16.4 µM

Question: With `Cc1ccc(O)c(-c2cc(C(=O)NCc3ccc4c(c3)OCO4)[nH]n2)c1` as the compound, how does the Potency read?
Answer: inconclusive [inhibitor, single point]

Question: With `COC(=O)CCCN1C(=O)c2cccc3cccc(c23)C1=O` as the compound, how does the “activity change, negative = growth inhibition” value read?
Answer: inactive: 12.4%

Question: For `COc1ccc(COc2cccc(C=O)c2)cc1`, which Potency is on record?
Answer: active: 3.66 µM

Question: Which Potency does the source give for `CCOc1ccc(C2NC(=O)C(C#N)=C(S)N2c2cccc(C)c2)cc1OC` (stereo not drawn) here?
Answer: inconclusive [inhibitor, single point]

Question: For `O=C(OCc1cc(=O)n2cc(Br)ccc2n1)c1ccc(Cl)c(S(=O)(=O)NCc2ccccc2)c1`, which Potency is on record?
Answer: inconclusive [inhibitor, single point]

Question: Which “activity change, negative = growth inhibition” value does the source give for `Cc1c(C(=O)NCCC#N)sc(=O)n1Cc1ccc(F)cc1` here?
Answer: inactive: -24.1%

Question: For `COC1=CC(=O)OC(c2ccccc2)C1` (stereo not drawn), which “activity change, negative = growth inhibition” value is on record?
Answer: inactive: -0.851%

Question: For `COc1cccc(OC)c1C1=CC(=O)C[C@H](c2ccc3c(c2)OCO3)C1`, which Potency is on record?
Answer: inconclusive [inhibitor, full curve, poor fit]

Question: With `CCOc1ccccc1NC(=O)C(Sc1ccccc1)c1ccccc1` (stereo not drawn) as the compound, how does the Potency read?
Answer: inconclusive [inhibitor, single point]

Question: With `O=C(CC(=O)Nc1ccccn1)Nc1ccccn1` as the compound, how does the “activity change, negative = growth inhibition” value read?
Answer: inactive: 0.537%

Question: With `C=CCc1cccc2cc(C(=O)Nc3ccc(S(=O)(=O)Nc4nnc(CC)s4)cc3)c(=O)oc12` as the compound, how does the “activity change, negative = growth inhibition” value read?
Answer: inactive: -12.6%

Question: Which Potency does the source give for `COc1cc(NC(=O)CN2CCCN(S(=O)(=O)c3ccc(F)cc3)CC2)cc(OC)c1` here?
Answer: inconclusive [inhibitor, single point]

Question: For `C=CCc1cccc2cc(-c3nc4ccc(C(=O)O)cc4[nH]3)c(=O)oc12`, which “activity change, negative = growth inhibition” value is on record?
Answer: inactive: 1.26%

Question: For `CCCCn1c(CCC(=O)O)nc2cc(S(=O)(=O)N(CC)CC)ccc21`, which “activity change, negative = growth inhibition” value is on record?
Answer: inactive: -5.57%

Question: For `C=CC[C@@H](CC(=O)N(CCO)Cc1ccccc1)C(=O)N[C@@H](C)COC(=O)[C@@H](CC=C)CC(=O)OC(C)(C)C`, which Potency is on record?
Answer: inconclusive [inhibitor, single point]

Question: For `COc1ccc2cc(CN(C(=O)Nc3ccccc3OC)C3CCCC3)c(=O)[nH]c2c1`, which Potency is on record?
Answer: inconclusive [inhibitor, single point]

Question: With `Cc1cc(=O)oc2c(C)c(OC(C)C(=O)NCCCn3ccnc3)ccc12` (stereo not drawn) as the compound, how does the “activity change, negative = growth inhibition” value read?
Answer: inactive: -4.41%

Question: With `C[C@H](CO)NC(=O)c1nc[nH]c1C(=O)N[C@@H](C)c1ccccc1` as the compound, how does the Potency read?
Answer: inconclusive [inhibitor, single point]

Question: With `COc1ccc(C)cc1NC(=O)C1CCCN(S(=O)(=O)c2cccc3cccnc23)C1` (stereo not drawn) as the compound, how does the Potency read?
Answer: inconclusive [inhibitor, single point]

Question: With `O=C(COc1ccc(Cl)cc1)NCCS(=O)(=O)N1CCN(c2ccc(F)cc2)CC1` as the compound, how does the Potency read?
Answer: inconclusive [inhibitor, single point]

Question: Which Potency does the source give for `Cc1ccc(C(C(=O)NC2CCCC2)N(C(=O)Cc2cccs2)c2ccc(C)c(C)c2)o1` (stereo not drawn) here?
Answer: inconclusive [inhibitor, partial curve, poor fit]

Question: For `COc1ccc(C(C)(C)C)cc1NC(=O)Cn1cnnn1`, which “activity change, negative = growth inhibition” value is on record?
Answer: inactive: 0.642%

Question: Which Potency does the source give for `O=C(Nc1ccc(N2CCN(C(=O)c3ccccc3F)CC2)cc1)c1cncc(Br)c1` here?
Answer: inconclusive [inhibitor, partial curve, poor fit]

Question: With `O=C(NC1CCSc2ccccc21)c1cc(S(=O)(=O)N2CCOCC2)ccc1Cl` (stereo not drawn) as the compound, how does the Potency read?
Answer: inconclusive [inhibitor, single point]

Question: Which Potency does the source give for `Cc1cc(C(=O)C(C)OC(=O)c2ccc(NC(=O)CC#N)cc2)c(C)n1-c1ccccc1` (stereo not drawn) here?
Answer: inconclusive [inhibitor, single point]

Question: With `CC(=O)c1cccc(NS(=O)(=O)N2CCOCC2)c1` as the compound, how does the “activity change, negative = growth inhibition” value read?
Answer: inactive: -2.15%

Question: For `CCN(C[C@H]1N[C@@](Cc2ccccc2)(C(=O)OC)[C@H]2C(=O)N(C)C(=O)[C@@H]12)C(=O)c1ccccc1`, which “activity change, negative = growth inhibition” value is on record?
Answer: inactive: -0.229%

Question: For `Cc1ccc(-c2cc(NC=O)c3ncc(-c4cnn(C)c4)n3c2)cc1`, which Potency is on record?
Answer: active: 4.11 µM

Question: With `CCOCCCNC(=O)c1ccc(Cn2c(=O)c3cccn3c3cccnc32)cc1` as the compound, how does the Potency read?
Answer: inconclusive [inhibitor, single point]

Question: For `Cc1c(C(=O)Nc2nc3ccccc3[nH]2)oc2ccccc12`, which Potency is on record?
Answer: active: 20.6 µM

Question: Which “activity change, negative = growth inhibition” value does the source give for `COc1ccc(C(C)NC(=O)c2ccncc2)cc1` (stereo not drawn) here?
Answer: inactive: 3%

Question: Which Potency does the source give for `CC(OC(=O)[C@@H](NC(=O)OCc1ccccc1)C(C)C)C(=O)Nc1ccc(N2CCOCC2)cc1` (stereo partly drawn) here?
Answer: active: 20.6 µM

Question: With `COc1ccc(NC(=O)CN(C)C(=O)c2cc(C)oc2C)cc1` as the compound, how does the “activity change, negative = growth inhibition” value read?
Answer: inactive: 3.81%

Question: Which “activity change, negative = growth inhibition” value does the source give for `COc1ccc(C2C(C(=O)Nc3cccnc3)=C(C)Nc3nc(SCc4ccccc4)nn32)cc1` (stereo not drawn) here?
Answer: inactive: -24.2%

Question: With `COc1ccc(NC(=S)NCCc2ccc(F)cc2)c(OC)c1` as the compound, how does the “activity change, negative = growth inhibition” value read?
Answer: inactive: -11.7%

Question: For `COC(=O)C1=C(C)N=C2SC(C#N)=C(N)N2C1c1ccc(OC)cc1` (stereo not drawn), which “activity change, negative = growth inhibition” value is on record?
Answer: inactive: -20.8%

Question: With `COC(=O)Cc1c(C)c2ccc(O)c(CNCc3ccc(OC)c(OC)c3)c2oc1=O` as the compound, how does the “activity change, negative = growth inhibition” value read?
Answer: inactive: -3.78%

Question: Which Potency does the source give for `COC(=O)c1ccc(CSc2nnc(-c3c[nH]c4ccccc34)n2-c2ccccc2)cc1` here?
Answer: active: 20.6 µM

Question: With `CC(=O)NC(C)c1nc2ccccc2n1Cc1ccccc1Cl` (stereo not drawn) as the compound, how does the Potency read?
Answer: inconclusive [inhibitor, single point]

Question: With `Fc1cccc(Cc2c(-c3cccc(Cl)c3)nc3c4ccccc4ccn23)c1` as the compound, how does the Potency read?
Answer: active: 23.1 µM

Question: With `COc1ccc(-c2noc(-c3cc(-c4ccc(F)cc4)n[nH]3)n2)cc1` as the compound, how does the Potency read?
Answer: active: 6.51 µM

Question: For `CCOc1ccc(NCc2nnc(SCC(=O)Nc3nc(-c4ccccc4)cs3)n2-c2ccccc2)cc1`, which Potency is on record?
Answer: inconclusive [inhibitor, single point]

Question: Which Potency does the source give for `COc1ccc(CCC(=O)N2c3ccccc3N=C(c3ccc(C(F)(F)F)cc3)C2C(=O)NC2CCCC2)cc1` (stereo not drawn) here?
Answer: inconclusive [inhibitor, single point]

Question: Which Potency does the source give for `O=C(NCc1ccc(F)cc1)c1nnc(Cc2cccc(F)c2)o1` here?
Answer: inconclusive [inhibitor, single point]

Question: For `COC(=O)c1sccc1NC(=O)CSCCc1ccncc1`, which “activity change, negative = growth inhibition” value is on record?
Answer: inactive: -9.23%

Question: With `CCOc1ccc(NC(=O)Nc2cc3c(cc2N2CCCCC2)n(C)c(=O)n3C)cc1` as the compound, how does the Potency read?
Answer: active: 11.6 µM

Question: Which Potency does the source give for `CN(C)CCCNC(=S)N1CCC(C(=O)c2ccc(Cl)cc2)CC1` here?
Answer: active: 23.1 µM

Question: Which “activity change, negative = growth inhibition” value does the source give for `CC(NS(=O)(=O)c1ccc2c(c1)C(=O)c1cc(S(=O)(=O)NC(C)C(=O)O)ccc1-2)C(=O)O` (stereo not drawn) here?
Answer: inactive: -2.23%

Question: With `O=C(Nc1cccc2ccccc12)c1ccc([N+](=O)[O-])s1` as the compound, how does the Potency read?
Answer: active: 14.6 µM

Question: With `Cc1ccc(-c2noc(CN(C(=O)CCCCCN3C(=O)c4ccccc4C3=O)C(C)C)n2)cc1` as the compound, how does the Potency read?
Answer: inconclusive [inhibitor, single point]

Question: With `CCOC(=O)CCCCN(Cc1ccccc1F)S(=O)(=O)c1ccc(F)c(C(=O)Nc2cc(Cl)cc(Cl)c2)c1` as the compound, how does the Potency read?
Answer: inconclusive [inhibitor, single point]

Question: With `CN(c1ccc(F)cc1)S(=O)(=O)N1CCCC(C(=O)NCCc2ccccc2)C1` (stereo not drawn) as the compound, how does the Potency read?
Answer: active: 20.6 µM

Question: For `COc1cc(NC(=O)CN2CCN(S(=O)(=O)/C=C/c3ccccc3)CC2)cc(OC)c1OC`, which Potency is on record?
Answer: inconclusive [inhibitor, single point]

Question: With `COc1ccc(NC(=S)NC(C)C(c2ccccc2)N2CCOCC2)cc1` (stereo not drawn) as the compound, how does the Potency read?
Answer: inconclusive [inhibitor, single point]

Question: For `COc1ccc(N2CCN(C(=O)c3cccnc3)CC2)c([N+](=O)[O-])c1`, which “activity change, negative = growth inhibition” value is on record?
Answer: inactive: 23.6%

Question: Which “activity change, negative = growth inhibition” value does the source give for `Cc1cccc(NC(=O)CN(CC2CCCO2)C(=O)c2cc(S(=O)(=O)N(C)C)ccc2F)c1C` (stereo not drawn) here?
Answer: inactive: -1.52%

Question: For `CC(=O)/C(N=Nc1cccc(C(F)(F)F)c1)=C(\C)O`, which “activity change, negative = growth inhibition” value is on record?
Answer: inactive: -24.1%

Question: With `CCOC(=O)c1c(C)oc2c1cc(O)c1ccccc12` as the compound, how does the “activity change, negative = growth inhibition” value read?
Answer: inactive: -18.3%

Question: For `CCOC(=O)C1=C(COC(=O)COc2ccccc2C(C)C)NC(=O)NC1C` (stereo not drawn), which “activity change, negative = growth inhibition” value is on record?
Answer: inactive: -3.27%

Question: For `CCN1CCN(c2cc(C)c3cc(NC(=O)/C=C/c4cccc(OC)c4OC)ccc3n2)CC1`, which Potency is on record?
Answer: inconclusive [inhibitor, single point]

Question: Which Potency does the source give for `CC(=O)c1ccc(S(=O)(=O)NC2CC(=O)N(c3ccc(C)c(C)c3)C2)cc1` (stereo not drawn) here?
Answer: active: 14.6 µM

Question: With `COc1cc(/C=N/NC(=O)c2[nH]nc3c2CCc2ccccc2-3)ccc1O` as the compound, how does the Potency read?
Answer: inconclusive [inhibitor, single point]

Question: With `CCN(C(=S)Nc1cc(S(=O)(=O)N2CCOCC2)ccc1Cl)c1cccc2ccccc12` as the compound, how does the Potency read?
Answer: active: 18.4 µM

Question: With `CCCCNC(=O)CSc1nc2n[nH]c(C)c2c(=N)n1-c1cccc(C)c1` as the compound, how does the Potency read?
Answer: active: 18.4 µM

Question: Which “activity change, negative = growth inhibition” value does the source give for `COC(=O)c1ccc2c(=O)n(CCN3CCOCC3)c(SCC(=O)NCc3ccccc3)nc2c1` here?
Answer: inactive: 3.44%

Question: With `Cc1cc2cc(CCNC(=O)CCc3ccccc3)c(=O)[nH]c2cc1C` as the compound, how does the Potency read?
Answer: inconclusive [inhibitor, partial curve, poor fit]

Question: With `Cc1cccc(C)c1NC(=O)C(c1ccnc2ccccc12)n1c(=O)c(-c2ccco2)nc2ccccc21` (stereo not drawn) as the compound, how does the Potency read?
Answer: inconclusive [inhibitor, single point]

Question: For `COc1cc2c(cc1OC)C(C)N(C(=O)c1ccc(C)o1)CC2` (stereo not drawn), which Potency is on record?
Answer: active: 25.9 µM

Question: With `CC(C)CC(=O)N1CCN(C(=O)c2ccc(-c3ccccc3)cc2)CC1` as the compound, how does the Potency read?
Answer: inconclusive [inhibitor, partial curve, poor fit]

Question: Which Potency does the source give for `C=CCc1ccc(OCCOCCOc2cccc3cccnc23)c(OC)c1` here?
Answer: inconclusive [inhibitor, partial curve]
